Source: the RNAGym collection of RNA variant scans (doi:10.7554/elife.90254)
Read counts are not given, so values of variants with three or more changes are uncertain.

B1: LINE1-mini (parent)
chain: GGCAGAGCUCAACACAGCGUGGCAAAGUGGCUGUGGCUAGACUGCC

Variants of: B1
Experiment: self-cleavage, relative activity (ratio to wild type); higher = more cleavage; in vitro, sequencing; the parent is a self-cleaving ribozyme
Work on C8A U28C G29U yielded a self-cleavage of 0.25.
In the case of A4C A12G G35C, the self-cleavage is reported as 0.02.
G5U A26U C37U G44C gave a self-cleavage of 0.04.
G5U A6C A39C gave a self-cleavage of 0.
In the case of C13A G29A G36A, the self-cleavage is reported as 0.21.
A11U G17U A26U A39C G40C showed a self-cleavage of 0.01.
G22C G30A C42U U43C showed a self-cleavage of 0.61.
Variant A14U C15U U32C U38G C46U has a self-cleavage of 0.02.
For G5U G35C G40C A41U, the self-cleavage was 0.12.
With C3U A16C G17A A26C U28A G35C the self-cleavage was 0.06.
Variant U20A C37U C42U G44C has a self-cleavage of 0.05.
With G2U C15U G29C the self-cleavage was 0.09.
For G2A G30A G33A C46U, the self-cleavage was 0.11.
Work on C10A G22A A26C C45U yielded a self-cleavage of 0.01.
Variant A14C G29C U32A G36U G40C has a self-cleavage of 0.16.
U20G U28C G35U C46G showed a self-cleavage of 0.26.
In the case of G1U C13U U34G, the self-cleavage is reported as 0.08.
Work on G7A C23A U28G yielded a self-cleavage of 0.03.
C15A G33C C37G A39C showed a self-cleavage of 0.03.
With C8U C13U G44A the self-cleavage was 1.38.
For C8G G40C C42G C45U, the self-cleavage was 0.03.
For G2A G5C C15G C18A, the self-cleavage was 0.04.
Variant G19A A26C G33A has a self-cleavage of 0.4.
Work on A4G C18U U20C G29U U32A yielded a self-cleavage of 0.03.
Variant C3G G7U C15A A24U has a self-cleavage of 0.06.
C10G C15G A16U showed a self-cleavage of 0.
G5U C13A A14C showed a self-cleavage of 0.04.
With C15U G33C C42U the self-cleavage was 0.02.
A6U A24G C46A gave a self-cleavage of 0.9.
Variant C10U A12G G17A C23A G29A has a self-cleavage of 0.03.
Variant C8U A11G G19C has a self-cleavage of 0.02.
In the case of A6G C15A A41G C46G, the self-cleavage is reported as 0.08.
With C10U G30A U32A A41U the self-cleavage was 0.07.
Variant A12U C15A C18A G21U G36C C45G has a self-cleavage of 0.
In the case of G7C C10U A26U C46G, the self-cleavage is reported as 0.02.
C3U C23A A26C showed a self-cleavage of 1.11.
G2U U32C A39C gave a self-cleavage of 0.04.
Work on U9G A16G G21U A26C U34A yielded a self-cleavage of 0.
G5U C23U A26U gave a self-cleavage of 0.94.
Variant G7U U9A C23G U32G has a self-cleavage of 0.11.
For A6G G21C C23G G36A C46U, the self-cleavage was 0.07.
Work on G5U C15A A24U yielded a self-cleavage of 0.06.
G7U A11G C23U G30A C31U C42A C45G C46U gave a self-cleavage of 0.01.
Variant G7A C8U A14C G29A has a self-cleavage of 0.01.
Variant A12G G30U C45G has a self-cleavage of 0.04.
C3G C10G G33C showed a self-cleavage of 0.02.
In the case of G7A A16G C42A C45G, the self-cleavage is reported as 0.22.
For C37U G40U A41C, the self-cleavage was 0.18.
G1U A14C U20G gave a self-cleavage of 0.06.
Variant A11C C15A C18G has a self-cleavage of 0.02.
Variant U9C G30A G36U has a self-cleavage of 0.02.
For C3U A24U A39G C46G, the self-cleavage was 0.22.
Work on C3U G17U C23A A24G A26G yielded a self-cleavage of 0.02.
With C23U A24C G27C U43A the self-cleavage was 0.06.
C10U C13A C23U G44U showed a self-cleavage of 0.02.
Work on C10A A16U U20C yielded a self-cleavage of 0.01.
For G1U G2U C10U, the self-cleavage was 0.02.
Work on G1A G2C A25G yielded a self-cleavage of 0.02.
Variant G1U A26C C31G has a self-cleavage of 0.
For G1U G2A A11C, the self-cleavage was 0.02.
Work on G22C A26G G35C yielded a self-cleavage of 0.05.
A12G G19U G27C showed a self-cleavage of 0.03.
In the case of G2U G29C A41U, the self-cleavage is reported as 0.03.
Variant C18G U20C C31A has a self-cleavage of 0.02.
With G1C A4U A6U A26U U28C G33C the self-cleavage was 0.03.
Variant A16U G27U G36C A41C has a self-cleavage of 0.02.
For G17U C18G G40U, the self-cleavage was 0.02.
In the case of C8A A11C G27A, the self-cleavage is reported as 0.07.
With G30A G35C G36A C42A the self-cleavage was 0.08.
U28C U38A G40U gave a self-cleavage of 0.15.
C13A U28A C31U G33A C42U showed a self-cleavage of 0.04.
A14G C18G A24U showed a self-cleavage of 0.1.
U9C C13U U34A A41G showed a self-cleavage of 0.
C8G G22U C23G G30A gave a self-cleavage of 0.2.
Work on A11U C23G A39C yielded a self-cleavage of 0.05.
With C10A G21C G40A U43G the self-cleavage was 0.01.
A14C C18G A24U G44U gave a self-cleavage of 0.06.
C23A U34G G35C showed a self-cleavage of 0.05.
For G21C G29A C37U, the self-cleavage was 0.02.
With A4G A6G C10A G29U G36U A41C the self-cleavage was 0.
With C10A G30C G44A the self-cleavage was 0.03.
In the case of C15A A24C U28G C31U, the self-cleavage is reported as 0.01.
Work on C15U G19U G22A yielded a self-cleavage of 1.2.
Variant G27C U28A G30U has a self-cleavage of 1.27.
